# The whole screen tested about 420,000 compounds, of which about 50,000 (12%) were called active. Inconclusive results, whose numbers are uncertain, are shown with a selection of clear calls. Calls come from the whole dose curve; as a rule, active = well fitted inhibition curve with a large enough effect; inconclusive = small, poorly fitted or top-dose-only effect; inactive = flat fitted curve, though single readings scatter. Potencies of inconclusive entries are left out as doubtful fits.
# Test: qHTS for Inhibitors of human tyrosyl-DNA phosphodiesterase 1 (TDP1): qHTS in cells in presence of CPT; note: nearly all actives have a fitted effect of over 55% in size
# Settings: chicken DT40 Tdp1-/-;hTDP1 cells + 20 nM CPT, ATP luminescence, 48 h; activity change, negative = growth inhibition: at 46.2 µM (top of the series) unless noted
# Method in brief: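 Cell growth measured by CellTiter-Glo luminescence after a minimum 48 h, 37 C compound exposure with 20 nM CPT in Tdp1-knockout DT40 cells stably expressing hTDP1, seeded 400/well; qHTS titration format.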
# % is set by controls: 0 for no effect and ±100 for the full control effect; potency is the fitted concentration of half-maximal effect; tags give direction and shape of the fitted curve.
Compound,Potency,"activity change, negative = growth inhibition"
Cc1cc(NC(=O)N2CCC(CN3CCCCCC3)CC2)ccc1Br,"inconclusive [inhibitor, single point]",
CC(C)CN1CCC2(CC1)CCN(C(=O)c1cccn1C)CC2,inactive,
C=CCSc1nc2c(cnn2-c2ccccc2)c(=O)n1N,inactive,
COc1cccc(NC(=O)C(=O)NCCC2CCCCN2S(=O)(=O)c2ccccc2)c1 (stereo not given),"inconclusive [inhibitor, single point]",
Cc1ccc(NC(=O)NC(=S)NC(=O)c2ccccc2)cc1,"inconclusive [inhibitor, single point]",
COc1ccc(S(=O)(=O)N(CC(=O)NCc2ccncc2)c2cc(C)cc(C)c2)cc1OC,inactive,
Cn1c(N)c(C(=O)COC(=O)c2ccccc2NCc2ccco2)c(=O)n(C)c1=O,inactive,
CS(=O)(=O)c1ccc(-c2nnc(NC(=O)c3cccc(N4C(=O)CCC4=O)c3)o2)cc1,inactive,
Cc1c(C)c2c(OCC(=O)Nc3ccc(CCO)cc3)cc3c(c2oc1=O)CCC(C)(C)O3,"inconclusive [inhibitor, partial curve]",
CCCNc1c(F)c(F)c2c(C)c3ccccc3nc2c1F,"inconclusive [inhibitor, single point]",
Cc1nn(CC(=O)NC(C)CCc2ccccc2)c(=O)c2nn(-c3ccccc3)c(C)c12 (stereo not given),,inconclusive: -32.9% [inhibitor]
CN(C)S(=O)(=O)c1cccc(C(=O)OCC(=O)Nc2ccccc2OC(F)F)c1,"inconclusive [inhibitor, single point]",
COC(=O)c1ccc2c(=O)n(CCCCCC(=O)NCCc3ccccc3)c(=O)[nH]c2c1,"inconclusive [inhibitor, single point]",
Brc1ccc2ncc3ccccc3c2c1,"inconclusive [inhibitor, partial curve]",
O=C(CN(c1ccccc1)S(=O)(=O)c1ccccc1)NCCSc1nc2ccccc2s1,"inconclusive [inhibitor, single point]",
O=c1cc(-c2ccc(C3CCCCC3)cc2)[nH][nH]1,"inconclusive [inhibitor, single point]",
O=C(Nc1cccc(F)c1)N1CCCC2(CCNCC2)C1,inactive,
CCOc1ccc(C(=O)N2CCN(S(=O)(=O)c3cccs3)CC2)c(OCC)c1,"inconclusive [inhibitor, single point]",
COc1ccc(S(=O)(=O)N2CCOCC2)cc1C(=O)N1CCCCCC1,inactive,
CCN(CC)Cc1c(C(=O)N/N=C/c2c(Cl)cccc2Cl)nnn1-c1nonc1N,inactive,
O=S(=O)(c1ccc(Cl)cc1)c1nnn2c1nc(NC1CCCC1)c1sccc12,"inconclusive [inhibitor, single point]",
CCC1Sc2ccccc2N(CC(=O)NCc2ccc(C)cc2)C1=O (stereo not given),"inconclusive [inhibitor, single point]",
CCC(Sc1nc(C)cc(=O)[nH]1)C(=O)Nc1nc2c(s1)CCCC2 (stereo not given),"inconclusive [inhibitor, single point]",

Compound,Potency,"activity change, negative = growth inhibition"
Cc1c(C(C)(C)C)sc(=NC(=O)c2ccccc2O)n1C,"inconclusive [inhibitor, single point]",
CN(CCOc1ccc(CC2SC(=O)NC2=O)cc1)c1ccccn1 (stereo not given),"inconclusive [inhibitor, single point]",
CC(C(=O)OCC(=O)c1c(N)n(C)c(=O)n(C)c1=O)N1C(=O)c2ccccc2C1=O (stereo not given),inactive,
CC1CN(C(=O)c2cc3cc(Br)ccc3[nH]2)CC(C)O1 (stereo not given),inactive,
O=C(CSc1nc2c([nH]c3ccccc32)c(=O)n1-c1ccccc1)Nc1ccc2c(c1)OCO2,"inconclusive [inhibitor, single point]",
O=C(CNC(=O)c1ccc(Br)o1)NNC(=O)c1ccccc1F,inactive,
Nc1c(C(=O)Nc2ccccc2Br)sc2nc(-c3cccs3)ccc12,"inconclusive [inhibitor, single point]",
COc1ccc(C(=O)Nc2oc(-c3ccccc3)c(-c3ccccc3)c2C#N)cc1,,inconclusive: -32.7% [inhibitor]
COc1ccc(-c2nc(Cn3c(=O)cc(C)c4c(C)nn(-c5ccccc5)c43)c(C)o2)cc1OC,inactive,
CC(=O)CSc1nc2c(c(=O)[nH]c(=O)n2C)n1Cc1cccc(Br)c1,"inconclusive [inhibitor, partial curve, poor fit]",
COc1ccc(C)cc1-n1c(-c2ccc(Cl)cc2)cc2c1CC(C)(C)CC2=O,"inconclusive [inhibitor, single point]",
O=C(c1ccncc1)N1CCN(c2cccc(C(F)(F)F)c2)CC1,"inconclusive [inhibitor, single point]",
COc1ccc(S(=O)(=O)N2CCCC2CNC(=O)C(=O)NCc2ccccc2Cl)cc1 (stereo not given),"inconclusive [inhibitor, single point]",
CC(=O)N1CCN(Cc2nc3cc(NC(=O)c4ccccc4Cl)ccc3n2C)CC1,inactive,
CC(=O)N1CCN(C(=O)COC(=O)/C=C/c2ccccc2[N+](=O)[O-])CC1,inactive,
COc1ccc(N2CCN(C(CNS(=O)(=O)c3ccc(OC)c(C)c3)c3ccco3)CC2)cc1 (stereo not given),"inconclusive [inhibitor, single point]",
COc1ccc(N2CCN(CCCn3c(=S)[nH]c4ccccc4c3=O)CC2)cc1,"inconclusive [inhibitor, single point]",
CNC(=O)C1CC(=O)N(c2ccc(OCC(=O)N3CCCC3)cc2)C1 (stereo not given),"inconclusive [inhibitor, single point]",
COc1ccc(C(=O)NC(=S)Nc2cc3oc4ccccc4c3cc2OC)cc1,inactive,
Cc1ccc(NC(=O)CCS(=O)(=O)c2cccc3nonc23)cc1,inactive,
CCOc1ccc(NC(=O)c2cc([N+](=O)[O-])ccc2N2CCOCC2)cc1,"inconclusive [inhibitor, single point]",
CCN(CCCNC(=O)COc1cc(=O)n(CC)c2ccccc12)Cc1ccccc1,"inconclusive [inhibitor, single point]",

# From PubChem BioAssay AID686979 (National Center for Advancing Translational Sciences (NCATS), 2013)
